Publication PMC4336329 (PLoS ONE, 2015)
The campaign covered roughly 310,000 compounds. About 14,000 (4.5%) showed an effect of 50% or more. The effect is printed as a negative number. Some of the results follow.

molecular target: human ether-à-go-go-related gene (hERG) potassium channel (human, UniProt Q12809); assay: primary screen, population patch clamp on CHO cells stably expressing hERG
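Further: peak tail current of the secondary pulse compared with the same well before compound.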

Sequence of human ether-à-go-go-related gene (hERG) potassium channel (Q12809 whole entry, looked up): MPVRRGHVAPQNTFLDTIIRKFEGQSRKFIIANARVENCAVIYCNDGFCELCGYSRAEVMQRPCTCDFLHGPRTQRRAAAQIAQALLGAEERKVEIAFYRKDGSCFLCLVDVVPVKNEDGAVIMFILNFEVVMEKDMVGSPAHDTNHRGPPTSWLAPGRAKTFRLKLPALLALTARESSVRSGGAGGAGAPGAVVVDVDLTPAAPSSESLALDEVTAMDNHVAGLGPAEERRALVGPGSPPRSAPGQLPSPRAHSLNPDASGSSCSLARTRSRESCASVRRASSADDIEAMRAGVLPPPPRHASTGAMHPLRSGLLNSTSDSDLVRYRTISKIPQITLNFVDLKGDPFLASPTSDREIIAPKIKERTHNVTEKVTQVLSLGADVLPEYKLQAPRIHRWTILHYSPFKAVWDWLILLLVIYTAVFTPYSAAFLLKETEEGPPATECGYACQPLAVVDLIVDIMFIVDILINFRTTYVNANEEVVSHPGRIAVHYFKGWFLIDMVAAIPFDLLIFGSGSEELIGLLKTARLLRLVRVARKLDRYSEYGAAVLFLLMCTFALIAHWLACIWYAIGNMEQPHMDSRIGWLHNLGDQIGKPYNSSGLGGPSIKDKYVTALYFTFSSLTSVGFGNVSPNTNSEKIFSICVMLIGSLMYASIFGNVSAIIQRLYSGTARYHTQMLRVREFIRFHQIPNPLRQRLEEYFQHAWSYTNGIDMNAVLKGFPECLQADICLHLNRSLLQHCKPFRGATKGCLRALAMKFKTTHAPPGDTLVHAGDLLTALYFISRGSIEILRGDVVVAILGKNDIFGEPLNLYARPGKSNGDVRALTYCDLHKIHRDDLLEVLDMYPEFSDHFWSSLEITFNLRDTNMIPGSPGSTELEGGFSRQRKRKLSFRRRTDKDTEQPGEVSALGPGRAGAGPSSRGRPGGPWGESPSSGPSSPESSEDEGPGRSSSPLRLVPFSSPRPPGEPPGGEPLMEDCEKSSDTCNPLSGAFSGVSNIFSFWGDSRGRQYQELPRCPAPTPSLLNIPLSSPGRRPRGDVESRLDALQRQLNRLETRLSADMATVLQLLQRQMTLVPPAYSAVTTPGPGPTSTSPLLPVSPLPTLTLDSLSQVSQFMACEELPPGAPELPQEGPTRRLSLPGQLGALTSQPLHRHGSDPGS

Row | Compound | hERG current change (%, negative = inhibition) at 10uM [%]
1 | COc1ccc(Br)cc1/C=N/NC(=O)c1cc(OC)c(OC)c(OC)c1 | 7.09
2 | Cn1cc(NC(=O)OCc2ccc(Cl)cc2)c(C(F)(F)F)n1 | 6.82
3 | COC(=O)c1cc(NC(=O)CN2CCC(C(N)=O)(N3CCCCC3)CC2)cc(C(=O)OC)c1 | -8.63
4 | C[C@H]1CC[C@@H]2[C@@H](C)[C@H]3[C@H](C[C@H]4[C@@H]5CC=C6C[C@@H](O[C@@H]7O[C@H](CO)[C@H](O)[C@H](O[C@@H]8O[C@H](CO)[C@@H](O)[C@H](O)[C@H]8O)[C@H]7O[C@@H]7O[C@@H](C)[C@H](O)[C@@H](O)[C@H]7O)CC[C@]6(C)[C@H]5CC[C@]34C)N2C1 | 20.4
5 | CC(C)CCNC(=O)C(C)N(Cc1ccc(F)cc1)C(=O)c1ccc(CN2CCOCC2)o1 (centres unmarked) | -0.694
6 | C[N+]1=C2CCCCCN2C(O)(c2ccccc2)C1.[I-] (centres unmarked) | 13.6
7 | CC(C#N)Sc1nnc(-c2ccccc2F)n1C1CC1 (centres unmarked) | 18.2
8 | Cc1ccccc1CC(=O)N1CC(C)OC(C)C1 (centres unmarked) | 1.27
9 | O=C1c2ccccc2C(=O)N1CC(O)Cn1nnc2ccccc21 (centres unmarked) | 3.02
10 | NC1=NC2(CCCC2)n2c(nc3ccccc32)N1 | -3.51
11 | CC(C)(C)c1ccc(C(=O)N2CCC(C(=O)NC3CC3)CC2)cc1 | -2.74
12 | CCc1ccccc1OCC(=O)N(CC)CC(=O)NCc1ccc(F)cc1 | 8
13 | COc1ccc(-c2noc(CSc3nc4sc(C)c(C)c4c(=O)n3-c3ccccc3)n2)cc1 | -13.7
14 | S=C(NCc1ccccc1)N1CCN(c2ccccc2)CC1 | 20.9
15 | COc1cc(OC)cc(-n2c3nc4ccccc4nc3c3c(=O)n(CC4CCCO4)cnc32)c1 (centres unmarked) | 6.58
16 | O=C(Nc1ccc2c(c1)OCCO2)c1ccc(Br)s1 | -1.3
17 | COc1cc(OC)cc(C(=O)N2CCN(S(=O)(=O)c3ccc(Cl)s3)CC2)c1 | -43.5
18 | CC(=O)c1cccc(OCCCOc2cccc3cccnc23)c1 | -15.5
19 | CC(C)[C@@H](C(=O)N1CCN(Cc2ccc3c(c2)OCO3)CC1)n1nnc2ccccc2c1=O | -14.4
20 | COc1cc(/C=N/n2cnnc2)ccc1Oc1nc(Cl)ncc1F | -24.3
21 | Cc1[nH]n(C(C)(C)C)c(=O)c1Sc1ccccc1 | 5.7
22 | Cc1cc(C(=O)NC2CCCc3ccccc32)no1 (centres unmarked) | 3.63
23 | COc1ccc(CCN(C)C2CCCN(S(=O)(=O)C(C)C)C2)cc1OC (centres unmarked) | -20.2
24 | O=C(Cc1ccccc1)NCC(=O)N/N=C/c1cccnc1 | 14.2
25 | Cc1[nH][nH]c(=O)c1C(c1c(C)[nH][nH]c1=O)c1cn(Cc2cccc3ccccc23)c2ccccc12 | 9.8
26 | O=S(=O)(NCCOc1ccc(F)cc1)c1ccc2c(c1)OCCO2 | -18.4
27 | COc1cc(/C=N/Nc2ccc(C(=O)O)cc2)ccc1O | 7.29

Row | Compound | hERG current change (%, negative = inhibition) at 10uM [%]
28 | Cc1ccc(N(C(=O)c2ccn[nH]2)C(C(=O)NC2CCCC2)c2cccs2)cc1 (centres unmarked) | 19.6
29 | CCOc1ccc2nc(Cl)c(C3CC(c4ccccc4)=NN3C(=O)c3cccs3)cc2c1 (centres unmarked) | 10.2
30 | CCCc1ccc(C(C)NC(=S)NC2CCCCC2)cc1 (centres unmarked) | 8.67
31 | O=C(Nn1c(C2CCCCC2)nc2ccccc2c1=O)c1cc(Cl)ccc1[N+](=O)[O-] | 1.97
32 | CCC(CO)Oc1cc(NCc2ccc(OC)cc2)c2ncn(C(C)C)c2c1 (centres unmarked) | -16.3
33 | O=C(NC1CCCCC1)NC1CCN(S(=O)(=O)c2ccc3c(c2)OCCO3)CC1 | 5.52
34 | CCCCOC(=O)c1ccc(OC(=O)N2CCOCC2)cc1 | -28.6
35 | CN(CC(=O)Nc1c(Cl)cccc1Cl)C(=O)C1CSC2(C)CCC(=O)N12 (centres unmarked) | 4.5
36 | COc1cc(NC(=O)c2cc(C)on2)cc(OC)c1OC | 2.39
37 | Cc1c(CNC(=O)c2c([N+](=O)[O-])cnn2C)cnn1C | 3.81
38 | CCOC(=O)c1c(S(=O)(=O)NCC(=O)Nc2ccccc2OC)c(C)n(C)c1C | -21.2
39 | N/C(=N\OC(=O)CCCOc1ccccc1)c1cccc(Br)c1 | 36.2
40 | CC(=O)Oc1cc2c(cc1Cl)C(c1cccs1)CC1(CC(C)(C)NC(=S)N1)O2 (centres unmarked) | 9.77
41 | CCN(CC)C(=O)CSc1nnc(-c2cccnc2)n1Cc1ccccc1 | -8.04
42 | CCN(CC)P(=O)(Nc1ccc(SC(F)F)cc1)c1ccc(N(C)C)cc1NC(=O)c1ccco1 (centres unmarked) | -4.39
43 | O=C(Cn1cnc2ccccc21)c1ccccc1 | 14.3
44 | O=C(NCc1ccco1)C(=O)NCC1OCCN1C(=O)c1ccc(Cl)cc1 (centres unmarked) | -4.21
45 | CC(Oc1ccc2c(c1)c1ccnc3c4ccccc4c(=O)n2c13)C(=O)NCCN1CCOCC1 (centres unmarked) | -6.87
46 | Cc1cc(NNC(=O)c2cccc(C(F)(F)F)c2)nc2c1c(C)nn2C | 10.3
47 | CCn1nnnc1SCC(=O)N1c2ccccc2Sc2ccccc21 | 4.99
48 | CCOC(=O)c1c(C)[nH]c(C)c1S(=O)(=O)N(C)CC(=O)N(C)Cc1ccccc1 | 23
49 | CN1CC(C(=O)c2cccc(C(F)(F)F)c2)C(c2ccc(Cl)cc2)C1 (centres unmarked) | -20
50 | Cc1ccc(CNc2nc3ccccc3n3nnnc23)cc1 | 10.6
51 | O=C(Nc1cccc(C(=O)Nc2ccccc2C(=O)O)c1)c1cccc(Cl)c1 | 9.97
52 | COc1cc(C=O)cc(Br)c1OCC(N)=O | 10.1
53 | Cc1nc2ccccc2n1CC(=O)N1CC(=O)Nc2ccccc21 | 15.5
